Reference: article PMC10304876 (Molecules, 2023)
“And” between values parts separate entries of the source, which are not always exact repeats. Identical values can stand only once.

biological target: human κ-opioid receptor (OPRK1) (Homo sapiens, UniProt P41145); experiment: cell-based; conditions: KOR Antagonist EC50 ± SEM (nM), cAMP assay; antagonist potency versus EC90 of U50488H
UniProt P41145, sequence (P41145 whole entry): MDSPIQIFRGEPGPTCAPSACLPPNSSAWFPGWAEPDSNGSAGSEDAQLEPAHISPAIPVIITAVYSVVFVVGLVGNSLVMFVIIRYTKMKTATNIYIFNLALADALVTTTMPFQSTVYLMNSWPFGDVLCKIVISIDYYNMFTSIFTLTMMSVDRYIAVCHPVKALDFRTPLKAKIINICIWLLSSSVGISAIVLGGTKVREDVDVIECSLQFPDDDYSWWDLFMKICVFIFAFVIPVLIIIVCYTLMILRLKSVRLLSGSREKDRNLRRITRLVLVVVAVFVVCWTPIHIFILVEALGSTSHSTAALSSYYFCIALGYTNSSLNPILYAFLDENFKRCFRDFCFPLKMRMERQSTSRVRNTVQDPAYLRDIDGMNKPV

Row | SMILES | EC50
1 | COC[C@H]1[C@H]2CCC[C@]1(c1cccc(O)c1)CCN2CCc1ccccc1 [Compound 41, 3-((1R,5S,9R)-9-(Methoxymethyl)-2-phenethyl-2-azabicyclo[3.3.1]nonan-5-yl)phenol] | 1370 ± 361 nM
2 | OC[C@H]1[C@@H]2CCC[C@@]1(c1cccc(O)c1)CCN2CCc1ccccc1 [Compound 15, 3-((1S,5R,9R)-9-(Hydroxymethyl)-2-phenethyl-2-azabicyclo[3.3.1]nonan-5-yl)phenol] | 24 ± 5 nM
3 | OCC[C@H]1[C@@H]2CCC[C@@]1(c1cccc(O)c1)CCN2CCc1ccccc1 [Compound 21, 3-((1S,5R,9R)-9-(2-Hydroxyethyl)-2-phenethyl-2-azabicyclo[3.3.1]nonan-5-yl)phenol] | > 100 nM and 111 nM
4 | OCCC[C@H]1[C@@H]2CCC[C@@]1(c1cccc(O)c1)CCN2CCc1ccccc1 [Compound 36] | 180 ± 30 nM
5 | OC[C@H]1[C@H]2CCC[C@]1(c1cccc(O)c1)CCN2CCc1ccccc1 [Compound 11, 3-((1R,5S,9R)-9-(Hydroxymethyl)-2-phenethyl-2-azabicyclo[3.3.1]nonan-5-yl)phenol] | 271 ± 92 nM
6 | OCCC[C@H]1[C@H]2CCC[C@]1(c1cccc(O)c1)CCN2CCc1ccccc1 [Compound 34, 3-((1R,5S,9R)-9-(3-Hydroxypropyl)-2-phenethyl-2-azabicyclo[3.3.1]nonan-5-yl)phenol] | 1910 ± 571 nM
